In all, about 310,000 compounds went through this assay and about 2,200 (0.71%) showed an effect of 50% or more. Effects have a minus sign here. This is one part of the list.

The target in the test is human ether-à-go-go-related gene (hERG) potassium channel (human, UniProt Q12809). As to the kind of experiment: primary screen, population patch clamp on CHO cells stably expressing hERG.
Chain of human ether-à-go-go-related gene (hERG) potassium channel (Q12809 whole entry, looked up): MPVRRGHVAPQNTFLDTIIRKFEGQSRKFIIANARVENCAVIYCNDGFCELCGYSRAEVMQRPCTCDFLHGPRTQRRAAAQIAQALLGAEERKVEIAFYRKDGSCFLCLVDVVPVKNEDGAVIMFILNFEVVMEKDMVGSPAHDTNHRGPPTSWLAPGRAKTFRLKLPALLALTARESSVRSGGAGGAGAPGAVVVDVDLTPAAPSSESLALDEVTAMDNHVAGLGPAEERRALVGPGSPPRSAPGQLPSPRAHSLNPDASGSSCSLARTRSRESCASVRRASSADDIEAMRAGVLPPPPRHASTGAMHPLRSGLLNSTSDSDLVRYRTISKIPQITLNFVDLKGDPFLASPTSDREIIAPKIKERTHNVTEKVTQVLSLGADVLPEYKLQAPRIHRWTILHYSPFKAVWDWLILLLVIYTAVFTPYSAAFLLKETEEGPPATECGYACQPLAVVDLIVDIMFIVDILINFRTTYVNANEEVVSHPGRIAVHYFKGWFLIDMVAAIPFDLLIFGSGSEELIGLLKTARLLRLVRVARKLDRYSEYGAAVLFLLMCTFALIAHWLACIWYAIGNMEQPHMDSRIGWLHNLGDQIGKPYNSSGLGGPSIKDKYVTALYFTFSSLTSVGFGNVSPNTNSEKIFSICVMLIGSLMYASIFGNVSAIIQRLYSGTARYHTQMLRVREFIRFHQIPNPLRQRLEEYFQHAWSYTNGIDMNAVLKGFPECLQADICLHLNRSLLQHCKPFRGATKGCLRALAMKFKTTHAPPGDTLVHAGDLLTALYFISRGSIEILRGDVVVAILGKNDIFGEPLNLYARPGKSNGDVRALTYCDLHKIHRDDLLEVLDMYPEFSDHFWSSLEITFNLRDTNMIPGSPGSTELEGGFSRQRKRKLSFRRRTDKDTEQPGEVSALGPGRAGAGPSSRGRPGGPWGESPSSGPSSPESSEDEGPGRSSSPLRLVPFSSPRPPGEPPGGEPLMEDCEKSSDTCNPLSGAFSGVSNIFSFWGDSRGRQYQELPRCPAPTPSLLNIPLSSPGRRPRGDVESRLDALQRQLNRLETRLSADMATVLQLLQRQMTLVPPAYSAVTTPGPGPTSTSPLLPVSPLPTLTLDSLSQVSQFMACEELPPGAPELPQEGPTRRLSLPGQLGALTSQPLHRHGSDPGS
For `O=C(CSc1nccc2ccccc12)N1CCN(c2ccccn2)CC1`, the “hERG current change (%, negative = inhibition) at 1uM” value stood at 8.48%. With `CC1CCCN(C(=O)c2cc3ccccc3cc2O)C1` (stereo not shown) the figure was -1.49%; with `CN(c1ccccc1)c1ccc(/C=N/NC(=O)CC#N)cc1`, 7.08%. `COCCCNC(=S)N/N=C/c1ccc(O)cc1`: the “hERG current change (%, negative = inhibition) at 1uM” value came out at 10%. With `CCN(CC(=O)Nc1c(F)cccc1F)C(=O)CCNS(=O)(=O)c1ccc(C)c(C)c1` the figure was 4.91%; with `Cc1ccc(NC(=O)NC2=NN(c3ccccc3)C(=O)/C2=C2/CCCN2C)cc1`, 8.91%; with `C/C(=N/OCC(=O)Nc1ccccc1)c1cccs1`, 4.47%. In the case of `Cl.O=C(CN1CCCCC1)NC1CCc2cc3c(cc21)CCC3` (stereo not shown), the “hERG current change (%, negative = inhibition) at 1uM” value is recorded as 10.4%. With `O=Cc1cn(CC(=O)N2CCCCCC2)c2ccccc12` the figure was 13.5%; with `Cc1cc(C(=O)C(C)Sc2cccc[n+]2[O-])c(C)n1-c1ccc(Cl)cc1` (stereo not shown), 1.4%.

Take `O=C(/C=C/c1c(Cl)cccc1Cl)NCc1ccco1`: the “hERG current change (%, negative = inhibition) at 1uM” value is 13%. With `CCOc1cccc(/C=C2/NC(=O)N(CC(=O)Nc3cccc(C)c3)C2=O)c1O` the figure was 17%; with `COC(CNC(=O)CNC(=S)N(Cc1ccccc1)Cc1cccs1)OC`, 0.735%. The result for `CN(C)C(=O)COc1ncnc2scc(-c3ccc(F)cc3)c12` reads 6.75%; that for `Cc1cc(Br)ccc1OCC(=O)N(Cc1nc(-c2ccccc2)no1)C(C)C`, 4.26%. The result for `NC(=O)C1=C[C@@H](c2ccc(Br)cc2)C[C@@H](OCc2ccc(CO)cc2)O1` reads 8.76%.

As to `CCCCC(=O)NC(=S)Nc1nnn(CCC)n1`, the “hERG current change (%, negative = inhibition) at 1uM” value was found to be 18.4%. For `CC1(c2ccccc2)NC(=O)N(NC(=O)COC(=O)c2cc(Br)ccc2O)C1=O` (stereo not shown), the “hERG current change (%, negative = inhibition) at 1uM” value is given as 11.7%. The result for `Cc1c(NC(=O)C(C)OC(=O)COc2ccccc2)c(=O)n(-c2ccccc2)n1C` (stereo not shown) reads 6.03%; that for `O=C(NNC(=S)Nc1ccc(Br)cc1Cl)c1ccco1`, 16.1%; that for `Cc1ncoc1C(=O)N1CCCC(C(=O)c2ccc(Oc3ccccc3)cc2)C1` (stereo not shown), 5.54%. With `Cc1noc(NS(=O)(=O)c2ccc(NC(=O)CCC3CCCC3)cc2)c1C`, the “hERG current change (%, negative = inhibition) at 1uM” value stood at 5.6%. The result for `CSc1nc(-c2ccccc2)nn1C(=O)c1ccccc1` reads 15.1%; that for `Cc1cc(-c2ccccc2)n2ncc(-c3ccccc3)c2n1`, 4.47%.

As for `Cc1cc(=O)[nH]c(N/N=C/c2ccc(Cl)c([N+](=O)[O-])c2)n1`, the “hERG current change (%, negative = inhibition) at 1uM” value is on record as 5.04%.

With `COc1ccccc1CCN=C(N)NS(=O)(=O)c1ccc(C)cc1`, the “hERG current change (%, negative = inhibition) at 1uM” value is -0.349%.

Consider `O=c1c(Cc2c(F)cccc2Cl)c(O)ccn1CCc1ccccn1`, for which the “hERG current change (%, negative = inhibition) at 1uM” value was 12.1%. The result for `CCOc1ccc(CCNC(=O)c2cccc(C#N)c2)cc1OCC` reads 7.99%; that for `Cc1cccn2c(CN[C@H]3CCCCNC3=O)c(C(=O)N3CCOCC3)nc12`, 5.12%; that for `CC(=O)c1cccc(NC(=O)/C(=C/c2ccncc2)NC(=O)c2ccccc2)c1`, 13.4%. The result for `O=C(Nc1ccc(Cl)cc1)c1cc2c(cc1O)[nH]c1ccccc12` reads 9.06%. The result for `O=C(Nc1ccc(-c2nnn(CC(=O)N3CCN(C(=O)c4ccco4)CC3)n2)cc1)c1ccccc1F` reads -23.1%; that for `CC(C)(C)CNC(CO)C12CC3CC(CC(C3)C1)C2.Cl` (stereo not shown), 10.6%. On to `COc1ccc2c(c1OC)C(=O)N1C2SC(C)(C)[C@H]1C(=O)NC1CCCC1` (stereo partly shown), for which the “hERG current change (%, negative = inhibition) at 1uM” value turned out to be 13.6%. The result for `CCCNC(=O)c1onc(CSc2ccc(Cl)cc2)c1C(=O)NC(C)C` reads -10.1%; that for `CCOc1ccc(N2C(=O)NC(=O)/C(=C\c3ccc(N4CCCCC4)o3)C2=O)cc1`, 5.27%; that for `Cc1ccc(NC(=O)CCSc2nnc3ccccn23)cc1`, 10.6%. Take `O=C(O)CCC(=O)N1CCc2c([nH]c3ccccc23)C1C(F)(F)F` (stereo not shown): the “hERG current change (%, negative = inhibition) at 1uM” value was 13.4%. With `Cc1ccc(S(=O)(=O)NCc2ccc(C(=O)NC3CCC(O)CC3)cc2)cc1C` (stereo not shown), the “hERG current change (%, negative = inhibition) at 1uM” value was determined as 12.7%.

Turning to `O=C(/C=C/c1ccc2c(c1)OCO2)c1ccccn1`, the “hERG current change (%, negative = inhibition) at 1uM” value stood at 9.72%. With `CC1(C)CC(=O)C(C(C2=C(O)CC(C)(C)CC2=O)c2cccs2)C(=O)C1` (stereo not shown) the figure was 2.32%. On to `Cl.O=S(=O)(c1ccc2nc(Cc3ccccc3)[nH]c2c1)N1CCOCC1`, for which the “hERG current change (%, negative = inhibition) at 1uM” value came out at 9.59%. As for `CCOc1ccccc1NC(=O)CN(c1cc(C)cc(C)c1)S(=O)(=O)c1c(C)noc1C`, the “hERG current change (%, negative = inhibition) at 1uM” value was 12.9%.

The record behind these values is publication PMC4336329 (PLoS ONE, 2015).
